# Measurements from paper PMC10668032.
# Some of the results follow. At the low end of the ranking the order means little.
# Target: SIX1 homeodomain (reference allele) (UniProt Q15475)
# Experiment: universal protein binding microarray
# Details: Universal all-10-mer PBM (8x60K, AMADID 030236), 300 nM GST-tagged protein, Alexa Fluor 488 anti-GST; buffer, salt, pH and temperature not stated; high values mean tight binding; most listed sequences are background and not binding sites; double strand, one strand shown
row,Sequence,binding signal [E-score]
1,GTATCGGA,0.451
2,TCTGTGCA,0.0882
3,AATTATCC,0.134
4,CACTTTAG,0.0665
5,ATCGGACG,0.179
6,CTTTATGC,-0.0501
7,ACGCGACT,-0.0828
8,GAAAGGTA,0.046
9,CTATATCC,0.366
10,TGGATAAA,0.144
11,CTGGGGTC,0.164
12,CTCTCCTA,0.0537
13,ATAATCTG,0.197
14,AGACGTAT,0.319
15,GCTGGATA,0.324
16,CGCTGGGA,0.128
17,GATAAAAA,0.0457
18,GAACCTCC,-0.181
19,TACCGGCA,0.107
20,CCACGCTA,-0.116
21,CGTTTCTA,-0.176
22,GGGCGTAC,0.0111

row,Sequence,binding signal [E-score]
1,CAAACGGA,0.0186
2,AATGTGAC,-0.161
3,CGGGAGTA,0.168
4,TGACATAA,-0.223
5,ATCTGCAG,0.115
6,GAGGTCCA,-0.381
7,CTCATTAA,-0.193
8,ATGCTTAC,-0.122
9,ACGAAGAC,-0.0839
10,AATATGCT,0.0268
11,ATGAGGGA,0.0535
12,CGCGAAAA,-0.0913
13,CTCATTTA,0.0702
14,CAACGTTA,-0.155
15,ACGTCTTG,-0.0644
16,ACCCGTAG,0.156
17,ATAAGTAT,0.235
18,CCGCAGCG,-0.232
19,CTATTGAC,0.0408
20,CTATTAGA,0.00514
21,CGGTGTTC,0.288
22,CCGCGGCA,-0.12

row,Sequence,binding signal [E-score]
1,ACTACGCG,-0.0274
2,CCAGAGGG,-0.0315
3,AGACCTCC,-0.0347
4,CAGCTCCG,-0.0916
5,CCGGTGTA,0.332
6,CCGCCAGG,-0.132
7,AGGGCATG,-0.0393
8,CGACCTTC,-0.266
9,CGGATTAC,0.299
10,CCGAGTAG,0.116
11,CTTAGTGA,-0.0285
12,CAAAGCGG,-0.189
13,TGGAATAA,-0.12
14,CCCTCCCG,0.0771
15,ACTTAACT,-0.111
16,ACTTACGC,-0.065
17,GTTAATAA,-0.047
18,CTGTATGC,-0.238
19,AGTGAGTC,-0.154
20,ACGGCATA,0.0123
21,AAGCCATA,-0.0859
22,CAGGACAA,-0.109

row,Sequence,binding signal [E-score]
1,CTAACGGA,-0.0614
2,CACTTCGA,-0.149
3,CTTCAGCA,-0.358
4,ACCAAACC,-0.0343
5,CTCTTATC,0.0649
6,AACTACCG,-0.169
7,CGGTTGTA,-0.102
8,AGCCGAAA,-0.164
9,AGACCTCT,-0.081
10,ATAGGAAA,0.0622
11,GAATCAGA,-0.0145
12,GCGTAACA,-0.0581
13,ACTTTGTA,-0.104
14,GCGTCTCA,0.209
15,CAAAACTA,-0.0568
16,GCATTTGA,-0.0383
17,CCGAATAG,0.0699
18,AAGATCAT,0.273
19,CACGTTGC,-0.255
20,CTGCTATC,0.292
21,CTTCTCAC,0.307
22,AAAATTGA,-0.208

row,Sequence,binding signal [E-score]
1,CCGATCCA,0.29
2,CCAATAAC,0.0326
3,ACACTGTA,0.123
4,CTCTCTCA,-0.0574
5,GTCATAAA,-0.0997
6,AATTGCCC,0.0725
7,AACCAGTA,0.0066
8,CTCTGGAA,-0.161
9,AGCTGGCG,-0.252
10,GCAACTAA,-0.0314
11,ACAATGTC,-0.0373
12,ATGAATTC,-0.00523
13,GGACTACC,-0.0239
14,AGAATAAC,-0.191
15,GAGTAGGA,0.112
16,CAGAGTAA,-0.165
17,ATGCTAGA,-0.0205
18,CATGTTAA,-0.146
19,CGTATCCC,0.389
20,ATGTCCGC,-0.169
21,AAGGGCAG,-0.12
